Measurements taken from the supplement of paper PMC3334620.
In all, about 33,000 sequences were measured (“E-score (-0.5 to 0.5)”: median about -0.036, highest 2% from about 0.37 on). This is one part of the list.

Each sequence was assayed against T1, Yer064c (UniProt P40041) (assay: PBM E-score (8-mer binding enrichment) (E-score (-0.5 to 0.5)); higher = stronger / more preferred TF binding; most listed sequences are background and not binding sites). Settings: protein concentration: 200 nM; construct: GST-full length.
T1 sequence: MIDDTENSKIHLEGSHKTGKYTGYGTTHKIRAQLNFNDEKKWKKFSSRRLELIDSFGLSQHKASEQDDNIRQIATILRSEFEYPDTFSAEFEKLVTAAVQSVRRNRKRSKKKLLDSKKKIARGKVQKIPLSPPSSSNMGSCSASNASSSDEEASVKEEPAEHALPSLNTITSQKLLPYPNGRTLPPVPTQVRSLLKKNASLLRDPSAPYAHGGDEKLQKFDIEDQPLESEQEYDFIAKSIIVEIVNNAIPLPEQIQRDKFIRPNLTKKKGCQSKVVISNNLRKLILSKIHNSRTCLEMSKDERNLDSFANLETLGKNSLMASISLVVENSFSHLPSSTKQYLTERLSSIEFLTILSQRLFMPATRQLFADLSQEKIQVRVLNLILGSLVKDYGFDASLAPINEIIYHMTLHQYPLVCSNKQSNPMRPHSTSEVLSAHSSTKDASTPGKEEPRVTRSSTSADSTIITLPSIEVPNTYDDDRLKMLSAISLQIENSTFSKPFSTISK
Protocol: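 Universal 'all 10-mer' protein binding microarrays (Agilent AMADID 015681) probed with GST-tagged S. cerevisiae TFs (full-length or DBD) made by in vitro transcription/translation (PURExpress), about 100-200 nM. Bound TF was detected with fluorescent anti-GST. Each ungapped 8-mer (which stands for itself and its reverse complement) is scored by the PBM enrichment score (E-score), a modified Wilcoxon-Mann-Whitney statistic from -0.5 to +0.5, computed with the Universal PBM Analysis Suite. Scale: above 0.35 generally sequence-specific binding.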

Going from CGGATCAC to GCCTTACA, the “PBM E-score” value falls from 0.018 to -0.192.

Going from CCACCGTC to TATGCTAA, the “PBM E-score” value rises from -0.226 to -0.0046.

Going from AAGTTCTC to AGTAAGCG, the “PBM E-score” value falls from 0.062 to -0.0215.

Going from TATACGGA to CCCTTTAA, the “PBM E-score” value rises from -0.00922 to 0.0555.

Going from AGACAGCC to CTGAACGA, the “PBM E-score” value rises from -0.181 to 0.0953.

Compared with CACGCCTG, AAGTACCG is lower in “PBM E-score” value: -0.128 for the first, -0.182 for the second.

Going from CGCATTGC to ATGCCGTA, the “PBM E-score” value falls from 0.0144 to -0.0237.

Compared with ATCGAAGA, CTCCTCTC is lower in “PBM E-score” value: 0.0458 for the first, -0.0659 for the second.

First: GCCCCCAC
Second: CGTAATAA
The “PBM E-score” value of the first is lower: -0.265 for the first, -0.0457 for the second.

Compared with TTCCACAA, TACAGCCA is lower in “PBM E-score” value: -0.0404 for the first, -0.152 for the second.

First: CGTATCGC
Second: ACGAGGAC
The “PBM E-score” value of the first is lower: -0.141 for the first, 0.165 for the second.

First: CGCACTAA
Second: AGGCGTGA
The “PBM E-score” value of the first is lower: -0.0949 for the first, 0.126 for the second.

Compared with CAAGGCAG, CCTCAAGG is lower in “PBM E-score” value: -0.0576 for the first, -0.14 for the second.

First: TGGCGTAA
Second: AAAGAGGC
The “PBM E-score” value of the first is lower: -0.21 for the first, -0.0253 for the second.

Compared with ATGCAGGC, CGATCCAC is lower in “PBM E-score” value: -0.0553 for the first, -0.107 for the second.

First: ATTCCACC
Second: ACTGACAC
The “PBM E-score” value of the first is higher: 0.162 for the first, 0.0326 for the second.

Compared with AAGGGAAT, GAGCCGAA is lower in “PBM E-score” value: -0.144 for the first, -0.161 for the second.

Compared with AAAACAAC, AAAATAAG is higher in “PBM E-score” value: -0.142 for the first, 0.0252 for the second.

First: ATTGCTTC
Second: CACATAGG
The “PBM E-score” value of the first is lower: -0.0238 for the first, -0.0221 for the second.

First: CAGGTTGA
Second: CCTCCATC
The “PBM E-score” value of the first is higher: 0.0225 for the first, -0.14 for the second.

Compared with GCGCCTCA, CGAACGCA is higher in “PBM E-score” value: -0.0686 for the first, 0.0694 for the second.

Compared with AACCGGCA, ACATTTCT is lower in “PBM E-score” value: -0.154 for the first, -0.168 for the second.

Going from AGGGCAAC to CACTCAAG, the “PBM E-score” value rises from -0.298 to 0.0873.

Compared with ATCGCGGC, CCATGCAG is lower in “PBM E-score” value: 0.03 for the first, -0.237 for the second.

First: CCCTTAAA
Second: CCCATATC
The “PBM E-score” value of the first is lower: -0.16 for the first, 0.00433 for the second.

Compared with ATTTCCAG, GCTTCTAA is lower in “PBM E-score” value: -0.073 for the first, -0.238 for the second.

Going from CGCAACAA to CAAGCGAA, the “PBM E-score” value rises from -0.146 to -0.0875.

Compared with ATTTGGGG, TCGGCCCA is lower in “PBM E-score” value: 0.0406 for the first, -0.036 for the second.

Compared with GGCTCGGA, ATCTTAAT is higher in “PBM E-score” value: -0.182 for the first, 0.195 for the second.

Compared with CTGGTTAC, CAAAGTTA is higher in “PBM E-score” value: -0.143 for the first, 0.0782 for the second.

Compared with CCTTAGTC, GAGGCGAC is lower in “PBM E-score” value: 0.41 for the first, 0.0143 for the second.

Compared with AGCAACTA, AAGGCCGG is lower in “PBM E-score” value: 0.107 for the first, -0.0438 for the second.

First: GGTAGGGA
Second: TCGTTACA
The “PBM E-score” value of the first is lower: -0.0117 for the first, 0.064 for the second.

Compared with GCTTAGAA, AATCCATC is lower in “PBM E-score” value: 0.0272 for the first, -0.0638 for the second.

Compared with CTGTAGCA, GAGTTCCA is higher in “PBM E-score” value: -0.114 for the first, -0.0582 for the second.

Going from ACTGGCTA to CTCAGTAC, the “PBM E-score” value rises from 0.0549 to 0.147.

First: AGCGTGCC
Second: CGTTTCTC
The “PBM E-score” value of the first is lower: -0.274 for the first, -0.118 for the second.

First: CGCCCCAA
Second: GCTGTCCC
The “PBM E-score” value of the first is higher: -0.162 for the first, -0.329 for the second.

First: AGATAGGA
Second: ACATCGAA
The “PBM E-score” value of the first is lower: -0.126 for the first, 0.00817 for the second.

First: AGGAGTAG
Second: AACTCCAA
The “PBM E-score” value of the first is lower: -0.0375 for the first, 0.0471 for the second.

First: CATAAAAG
Second: CCACCTAC
The “PBM E-score” value of the first is higher: 0.0811 for the first, 0.0565 for the second.

Going from AGGACCAA to CAACAAGA, the “PBM E-score” value rises from -0.219 to 0.112.

First: CCCGCTAC
Second: AGAAACAC
The “PBM E-score” value of the first is lower: -0.194 for the first, -0.0696 for the second.
